# Assay results from PubChem BioAssay AID651820 (National Center for Advancing Translational Sciences (NCATS), 2012).
# Several values for one entry are separate records, joined by “and”; a condition that tells them apart may be missing. Equal entries are not always repeated. About 12,000 (3.5%) of roughly 340,000 compounds were called active. The inconclusive results got no clear call from the source; some entries with a clear call stand among them for comparison. The call rests on the fitted dose curve; in most records, active means well fitted inhibition curve with a large enough effect; inconclusive means small, poorly fitted or top-dose-only effect, or another doubt; inactive means no such curve, though single readings can be large or run the other way. Potencies of inconclusive entries are doubtful fits and often do not repeat.
# Test: qHTS Assay for Inhibitors of Hepatitis C Virus (HCV)
# Settings: Huh7.5.1 HCVcc-Cre (HCVcc is cell-culture hepatitis C virus) infection, luciferase reporter, 44 h; activity change, negative = inhibition: at 41.8 µM (top of the series) unless noted
# Method in brief: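 Cells (1,000/well) were plated 4 h before compound, then infected with HCVcc-Cre virus (~0.5 moi). After 44 h further culture, infection was read as luciferase luminescence following a 15 min substrate incubation at room temperature.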
# On the % scale 0 is the no-effect control and ±100 the full control effect; potency means the concentration at half of the fitted maximal effect; tags describe the fitted curve by direction and shape.
SMILES,"activity change, negative = inhibition",Potency
O=C(C[C@H]1C[C@H](C(=O)N2CCCCC2)[C@@]2(CCc3ccccc3)c3[nH]c4cc(-c5ccco5)ccc4c3CCN2C1=O)NCc1cccc(C(F)(F)F)c1,inactive: 6.85%,
Cc1cccc(C(=O)Nc2sc3c(c2C#N)CCCCC3)c1,,"inconclusive: 3.98 µM [inhibitor, full curve, poor fit]"
COC(=O)c1cc(=O)n(CCc2ccc(OC)cc2)c(=Nc2ccc(F)c(Cl)c2)s1,,"inconclusive: 10 µM [inhibitor, partial curve]"
C=CCNCC(=O)Nc1ccccc1SCC(=O)Nc1ccsc1C(=O)OC,,"inconclusive: 14.1 µM [inhibitor, single point]"
Cc1cc(C(=O)N2CCN(c3ccc(C(F)(F)F)cn3)CC2)c(C)o1,,"inconclusive: 11.2 µM [inhibitor, single point]"
CC(=O)N1c2ccccc2C2CCCC[C@@H]21 (some centres undefined),inactive: -32.8%,
CN1CCN(S(=O)(=O)c2cccs2)CC1,inactive: -0.326%,
COc1ccc2c(c1)C(=O)N1[C@H]3c4cc(Br)ccc4OC[C@@H]3[C@H](c3ccccc3)[C@]1(C)C(=O)N2,,"inconclusive: 25.1 µM [inhibitor, single point]"
CC(C)CCNc1ncnc2c1cnn2Cc1ccccc1Cl,,"inconclusive: 8.91 µM [inhibitor, partial curve]"
CC1CC(C)CN(S(=O)(=O)c2ccc(C(C)(C)C)cc2)C1 (centres undefined),,"inconclusive: 14.1 µM [inhibitor, single point]"
COc1cc2cc(C(=O)Nc3ccccc3)c(N)nc2cc1OC,inactive: -16.4%,
O=C(C1CC1)N1CCc2cc(S(=O)(=O)NCCCN3CCCCC3)ccc21,,"inconclusive: 31.6 µM [inhibitor, single point]"
CS(=O)(=O)Nc1ccc(C(=O)NCCSCc2ccccc2)cc1,inactive: 2.18%,
CN(C)S(=O)(=O)c1ccc(Cl)c(NC(=O)CSc2nc3ccccc3c(=O)n2CCCN2CCOCC2)c1,,"inconclusive: 2.82 µM [inhibitor, single point]"
CCCCCn1c(=O)c(C(=O)NCc2ccccc2Cl)c(O)c2ccccc21,inactive: 6.33%,
CN1CCN(S(=O)(=O)c2cccc(C(=O)N3CCc4ccccc43)c2)CC1,inactive: 21%,
CCOC(=O)c1ccc(N=c2sc(C(=O)OC)cc(=O)n2CCCN2CCOCC2)cc1,,"inactive and inconclusive: 25.1 µM [inhibitor, single point]"
CCc1ccc2[nH]c(=O)c(CN(Cc3ccc4c(c3)OCO4)Cc3nnnn3C3CCCC3)cc2c1,,"inconclusive: 22.4 µM [inhibitor, single point]"
O=C(/C=C/c1ccc(S(=O)(=O)NCc2ccco2)cc1)NCc1ccccc1Cl,,"inconclusive: 2 µM [inhibitor, full curve, poor fit]"
Cc1cc(NC(=O)c2ccc3c(c2)OCCO3)ccc1NC(=O)c1cc2ccccc2o1,,active: 11.2 µM
O=C(OCC(=O)N1CCN(C(=O)c2ccco2)CC1)c1cc(-c2ccc(Cl)c(Cl)c2Cl)nc2ccccc12,,"inconclusive: 11.2 µM [inhibitor, single point]"
Cc1c(S(=O)(=O)c2ccccn2)c(N)n(Cc2ccccc2Cl)c1C,inconclusive: -39.4% [inhibitor],
Cc1cccc(OCCCC(=O)Nc2nccs2)c1,,"inconclusive: 11.2 µM [inhibitor, partial curve]"

SMILES,"activity change, negative = inhibition",Potency
CC(C)(C)NCCCOc1ccc(Cl)cc1C(C)(C)C,,active: 5.01 µM
COc1cc2c(cc1NC(=O)c1cccc(Br)c1)CCCC2,,active: 7.08 µM
COc1ccccc1CC(=O)NNC(=O)c1cccs1,inactive: 5.35%,
CCOC(=O)N1CCN(C(=O)C2CCCN(Cc3nc(-c4ccc(Cl)cc4)oc3C)C2)CC1 (centres undefined),,active: 1.41 µM
COc1ccc(N2CCN(Cc3csc(C)c3-c3ccc(C)cc3)CC2)cc1,,"inconclusive: 11.2 µM [inhibitor, partial curve]"
CCOC(=O)c1sc2nc(C)nc(NCc3ccc(F)cc3)c2c1C,,"inconclusive: 31.6 µM [inhibitor, single point]"
O=C(Nc1cccc(C(=O)N2CCN(c3cccc(Cl)c3)CC2)c1)c1ccccc1,,active: 14.1 µM
COCCn1c(SCC(=O)Nc2c(C)n(C)n(-c3ccccc3)c2=O)nc2ccccc2c1=O,inactive: -7.95%,
CCCn1c(=O)n(C)c(=O)c2c(SCC(=O)NC34CC5CC(CC(C5)C3)C4)nc(CC(C)C)nc21,,"inconclusive: 22.4 µM [inhibitor, single point]"
COc1cc(CNc2ccc3[nH]c(=O)[nH]c3c2)ccc1OCc1ccc(Cl)cc1,,"inconclusive: 10 µM [inhibitor, partial curve]"
Nc1cc(=O)[nH]c(SCC(=O)Nc2cccnc2Cl)n1,,"inconclusive: 20 µM [inhibitor, single point]"
N#CC(c1ccc([N+](=O)[O-])cc1)C(CC(=O)c1ccccc1)c1ccccc1 (centres undefined),,"inconclusive: 10 µM [inhibitor, partial curve]"
COC(=O)C1CN(C#N)N(c2ccc(Cl)cc2)C12c1ccccc1-c1ccccc12 (centres undefined),,active: 3.98 µM
COC(C(=O)C(O)C(C)O)C1Cc2cc3cc(OC4CC(OC5CC(O)C(O)C(C)O5)C(O)C(C)O4)c(C)c(O)c3c(O)c2C(=O)C1OC1CC(OC2CC(OC3CC(O)C(OC)C(C)O3)C(O)C(C)O2)C(O)C(C)O1 (centres undefined),,active: 1 µM
O=C(Nc1ccc(C(=O)N2CCCCC2)cc1)c1ccccc1Cl,inactive: -5.61%,
CCOC(=O)c1sc(C)c2c1NC(c1ccc(Cl)cc1)NC2=O (centres undefined),,"inconclusive: 11.2 µM [inhibitor, single point]"
Cc1cc(N2CCN(C(=O)Nc3ccccc3C#N)CC2)c2ccccc2n1,,"inconclusive: 31.6 µM [inhibitor, single point]"
O=C(CSc1nc2nn(-c3ccccc3)c(=O)c-2c2n1CCCCC2)Nc1ccc(F)c(F)c1,,"inconclusive: 11.2 µM [inhibitor, partial curve]"
Cc1cc(C)c2[nH]c(=O)c(C(c3nnnn3C(C)(C)C)N(Cc3ccco3)CC3CCCO3)cc2c1 (centres undefined),inactive: -7.51%,
CCC(=O)N1N=C(c2ccc(NS(=O)(=O)c3ccc(C)cc3)cc2)CC1c1ccco1 (centres undefined),,active: 11.2 µM
O=C(Cc1ccccc1)Nc1cc(Cl)ccc1Sc1ccccc1,,"inconclusive: 31.6 µM [inhibitor, single point]"
CC(C)(C)C(=O)Nc1nc2cc3c(cc2s1)OCO3,,"inconclusive: 14.1 µM [inhibitor, single point]"
COC1=C(N)C(=O)c2nc(C)ccc2C1=O,,"inconclusive: 31.6 µM [inhibitor, single point]"

SMILES,"activity change, negative = inhibition",Potency
COc1ccc(SCCN2CC[C@@H](NC(=O)OCc3ccccc3)CCC2=O)cc1,,"inconclusive: 3.55 µM [inhibitor, single point]"
CC1(CCc2ccc3c(c2)OCO3)NCCc2c1[nH]c1ccccc21 (centres undefined),,active: 11.2 µM
CCCC(=O)Nc1nc2ccc(NC(=O)c3ccc(Br)o3)cc2s1,,active: 7.94 µM
CCOc1ccc(C2NC(=O)Cc3cc(OC)c(OC)cc32)cc1 (centres undefined),inactive: 12.1%,
COc1ccc(N2CCN(/C(=N\S(=O)(=O)c3ccc(C)cc3)Nc3nc(C)cc(C)n3)CC2)cc1,inactive: -0.997%,
Cc1ccc2c(Cl)cc(Cl)c(O)c2n1,,"inconclusive: 12.6 µM [inhibitor, partial curve]"
CCOC(=O)c1sc(NC(=O)CN2C(=O)NC3(CC(C)CC(C)(C)C3)C2=O)c(C(=O)OCC)c1C (centres undefined),inactive: 4.82%,
Oc1ccc(Cl)cc1CNCC1CCCO1 (centres undefined),inactive: 2.67%,
O=C(Cc1cccc(NC(=O)C2CCN(C(=O)CCc3ccccc3)CC2)c1)Nc1cccc(C(=O)N2CCOCC2)c1,,"inconclusive: 3.55 µM [inhibitor, full curve]"
CN(C)c1ccc(NC(=S)NC(=O)/C=C/c2ccco2)cc1,inactive: -5.19%,
COCC(COS(N)(=O)=O)Cc1ccccc1 (centres undefined),inactive: 15.8%,
CCN(CC)S(=O)(=O)c1cc(C(=O)Nc2ccccc2[N+](=O)[O-])ccc1Cl,,"inconclusive: 3.98 µM [inhibitor, full curve]"
CCc1ccc(-c2cn(C3CCCCC3)c(=S)[nH]2)cc1,,"inconclusive: 31.6 µM [inhibitor, single point]"
O=c1c2cc(F)ccc2sn1-c1ccc(F)cc1,,"inconclusive: 1.78 µM [inhibitor, partial curve, poor fit]"
CC(C)C[C@@H](CO)N1CCN(Cc2ccc(Br)cc2)CCC1=O,,"inconclusive: 3.55 µM [inhibitor, single point]"
CCCCC(=O)Nc1cc(N(C)C)nc2ccccc12,,"inconclusive: 31.6 µM [inhibitor, single point]"
O=C(c1ccc(F)cc1)C(CCCCCC(CN1CCOCC1)C(=O)c1ccc(F)cc1)CN1CCOCC1 (centres undefined),,"inconclusive: 31.6 µM [inhibitor, single point]"
CCCCCCSc1ccc([C@H]2N[C@@](CC(C)C)(C(=O)OC)[C@H]3C(=O)N(C)C(=O)[C@@H]23)cc1OC,,active: 7.94 µM
COc1ccc(CC(=O)OCC(=O)Nc2ccc(C(=O)Nc3ccc(OC)cc3)cc2)cc1,,"inconclusive: 8.91 µM [inhibitor, partial curve]"
O=C(/C=C/c1cccc([N+](=O)[O-])c1)NCc1ccccc1,inactive: -7.67%,
CN(C)c1ccc(CNc2ccc3c(c2)ncn3C)cc1,,"inconclusive: 22.4 µM [inhibitor, single point]"
CC(OC(=O)c1ccc2noc(-c3ccccc3)c2c1)C(N)=O (centres undefined),,"inconclusive: 11.2 µM [inhibitor, single point]"
COc1cccc(C(=O)Nc2ccc(S(=O)(=O)N3CCCCC3)cc2)c1OC,,"inconclusive: 14.1 µM [inhibitor, single point]"
